For test [1], the target named is T1, human α2A‐adrenoceptor (Homo sapiens, UniProt P08913).
T1 sequence (P08913 1-465): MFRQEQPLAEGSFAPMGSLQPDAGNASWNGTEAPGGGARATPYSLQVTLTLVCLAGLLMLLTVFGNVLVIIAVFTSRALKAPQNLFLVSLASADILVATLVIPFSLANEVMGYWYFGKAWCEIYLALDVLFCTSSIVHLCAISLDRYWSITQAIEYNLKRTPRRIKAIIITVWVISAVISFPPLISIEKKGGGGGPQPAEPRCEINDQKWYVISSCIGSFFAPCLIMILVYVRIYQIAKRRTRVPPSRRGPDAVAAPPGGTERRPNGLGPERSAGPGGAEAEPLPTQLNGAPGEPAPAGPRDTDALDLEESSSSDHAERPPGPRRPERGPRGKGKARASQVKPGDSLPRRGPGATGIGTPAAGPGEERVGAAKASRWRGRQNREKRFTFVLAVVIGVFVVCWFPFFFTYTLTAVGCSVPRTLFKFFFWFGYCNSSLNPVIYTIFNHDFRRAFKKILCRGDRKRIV

For test [2], the target named is T2, human α2B‐adrenoceptor (Homo sapiens, UniProt P18089).
T2 sequence (P18089 1-450): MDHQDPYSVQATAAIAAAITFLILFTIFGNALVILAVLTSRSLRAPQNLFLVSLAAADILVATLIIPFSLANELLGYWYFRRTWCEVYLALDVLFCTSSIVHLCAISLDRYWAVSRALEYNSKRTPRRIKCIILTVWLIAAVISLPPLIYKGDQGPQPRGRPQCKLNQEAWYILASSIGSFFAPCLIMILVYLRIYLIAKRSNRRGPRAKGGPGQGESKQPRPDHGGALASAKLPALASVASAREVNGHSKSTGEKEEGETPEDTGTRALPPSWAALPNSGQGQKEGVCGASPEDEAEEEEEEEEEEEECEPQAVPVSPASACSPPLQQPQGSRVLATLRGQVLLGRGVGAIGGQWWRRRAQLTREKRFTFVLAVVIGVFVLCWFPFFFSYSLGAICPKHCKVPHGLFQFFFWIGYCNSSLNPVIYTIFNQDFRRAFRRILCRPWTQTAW

Test [3] concerns the target T3, human α2C‐adrenoceptor (Homo sapiens, UniProt P18825).
T3 sequence (P18825 1-462): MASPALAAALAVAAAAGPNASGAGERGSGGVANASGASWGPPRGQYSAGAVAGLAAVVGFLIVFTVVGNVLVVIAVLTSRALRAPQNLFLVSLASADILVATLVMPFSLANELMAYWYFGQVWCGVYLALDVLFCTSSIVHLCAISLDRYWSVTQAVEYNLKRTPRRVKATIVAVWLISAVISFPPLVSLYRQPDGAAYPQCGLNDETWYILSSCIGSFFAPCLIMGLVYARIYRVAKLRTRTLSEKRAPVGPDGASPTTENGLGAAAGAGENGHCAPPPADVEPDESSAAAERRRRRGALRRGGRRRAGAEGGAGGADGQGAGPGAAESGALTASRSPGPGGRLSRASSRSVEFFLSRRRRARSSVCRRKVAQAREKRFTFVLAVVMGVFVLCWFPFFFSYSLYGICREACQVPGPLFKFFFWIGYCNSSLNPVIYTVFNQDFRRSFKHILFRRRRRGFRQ

In test [4] the target is T1, human α2A‐adrenoceptor. Description: ^3H‐RX821002 whole cell competition binding, CHO‐α2A cells. Conditions: ^3H‐RX821002 as radioligand; living CHO cells; log values, mean ± s.e.mean; ^app = apparent KD from extrapolated curve.
Test [5] addresses T2, human α2B‐adrenoceptor. Description: ^3H‐RX821002 whole cell competition binding, CHO‐α2B cells. Conditions: ^3H‐RX821002 as radioligand; living CHO cells; log values, mean ± s.e.mean; ^app = apparent KD.
Test [6] has as its target T3, human α2C‐adrenoceptor. Description: ^3H‐RX821002 whole cell competition binding, CHO‐α2C cells. Conditions: ^3H‐RX821002 as radioligand; living CHO cells; log values, mean ± s.e.mean.
Test [7] deals with T2, human α2B‐adrenoceptor. Description: ^3H‐rauwolscine whole cell competition binding, CHO‐α2B cells.
Test [8] relates to human α1A‐adrenoceptor. Description: whole cell binding at α1A‐adrenoceptor, identical technique, previous study [33]. Conditions: abstract.
Test [9] addresses human α1A‐adrenoceptor. On the set-up: method as in PMID 32608144. Conditions: identical whole cell method; ref [33]; read-out: α1A‐adrenoceptor affinity; cited from earlier work.
For test [10], the target named is T1, human α2A‐adrenoceptor. Description: ^3H‐rauwolscine whole cell competition binding, CHO‐α2A cells.
The target of test [11] is T1, human α2A‐adrenoceptor. Description: whole cell saturation binding of radioligands, CHO‐α2A cells. Conditions: whole living cells, 2 h 37°C; read-out: KD of radioligand, saturation binding, CHO‐α2A cells.
The target of test [12] is T2, human α2B‐adrenoceptor. Description: whole cell saturation binding of radioligands, CHO‐α2B cells. Conditions: whole living cells, 2 h 37°C; read-out: KD of radioligand, saturation binding, CHO‐α2B cells.
Test [13] addresses T3, human α2C‐adrenoceptor. Description: whole cell saturation binding of radioligands, CHO‐α2C cells. Particulars: whole living cells, 2 h 37°C; read-out: KD of radioligand, saturation binding, CHO‐α2C cells.

Here are results for three molecules from article PMC8882856, “The affinity and selectivity of α‐adrenoceptor antagonists, antidepressants and antipsychotics for the human α2A, α2B, and α2C‐adrenoceptors and comparison with human α1 and β‐adrenoceptors” (Pharmacology Research & Perspectives, 2022).

Like-named read-outs stand apart in the source and are kept apart here.

Regarding `COc1ccccc1N1CCN(CCN2C(=O)c3ccccc3C(C)(C)C2=O)CC1` [ARC239], the Kd in [1] was 1020 nM; in test [2], 47.9 nM; in test [3] it was 56.2 nM. Also, in [4], the “Log KD α2A” value was −5.99 ± 0.06. The “Log KD α2B” value in [5] is listed as −7.29 ± 0.14. Also, the “Log KD α2C” value in test [6] was −7.18 ± 0.05. Besides, the “selectivity α2B versus α2C” value in test [7] was “less than 5 fold”.

As for `CC1c2ccccc2CN1CC1=NCCN1` (centres unmarked) [BRL44408], in test [8], the “α1A‐affinity greater than α2C‐affinity” value turned out to be 9 fold. Besides, the Kd in test [9] was 81 nM; in test [10] (read-out: α2A‐affinity, this study) it was 65 nM. Also, the “selectivity for α2A over α2C” value in [10] was found to be 9 fold.

Take `COC1(C2=NCCN2)COc2ccccc2O1` (centres unmarked) [^3H‐RX821002]: the Kd in [11] came to 4.73 ± 0.42 nM; in [12] it was 18 ± 1.41 nM; in [13], 3.6 ± 0.24 nM.
